{
  "source": "PubChem BioAssay AID1458",
  "about": "(National Center for Advancing Translational Sciences (NCATS), 2008)",
  "note": "About 5,900 (2.8%) of roughly 210,000 compounds were called active. This list was built around the results that the source calls inconclusive (neither active nor inactive); the mix of calls is not that of the screen. Calls follow the shape of the dose curve; as a rule, active = well fitted activation curve with a large enough effect; inconclusive = small, poorly fitted or top-dose-only effect; inactive = no such curve, though single readings can be large or run the other way. Potencies beside an inconclusive call are fits to weak or partial responses and may not hold up. Potency is read from the fitted curve at half-maximal effect; tags tell the direction and shape of the fitted curve.",
  "data": [
    {"experiment": "qHTS Assay for Enhancers of SMN2 Splice Variant Expression; also: nearly all actives have a fitted effect of over 55% in size; as to activity change, positive = activation: % of control where 0% means no effect", "conditions": "HEK293 SMN2-luciferase splicing reporter, luminescence, 30-36 h; activity change, positive = activation: at 46.1 µM (top of the series)", "procedure,_shortened": "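HEK293 cells carry an SMN2 minigene-luciferase reporter in which exon 7 inclusion puts luciferase in frame. Cells were seeded at 2000 cells/well, attached for 10-12 hours, then exposed to compounds for 30-36 hours at 37C before ONE-Glo luminescence.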", "values": [
      {"smiles": "Cn1c(=O)[nH]c(=O)c2c1nc(NCCCn1ccnc1)n2Cc1cccc(Br)c1", "Potency": "inconclusive: 35.5 µM [activator, single point]"},
      {"smiles": "CC(C)=CC(=O)Nc1nnc(-c2ccccc2)s1", "Potency": "active: 11.2 µM"},
      {"smiles": "Cc1ccc(C)c(OCC(=O)O/N=C(\\N)c2ccccn2)c1", "Potency": "inconclusive: 17.8 µM [activator, single point]"},
      {"smiles": "CCc1cc(C=NC2CCCCC2)c(O)s1", "activity change, positive = activation": "inactive: 17.9%"},
      {"smiles": "Cc1cccc(N(C)C(=O)C(Cc2ccccc2)NS(=O)(=O)c2cccc3nsnc23)c1", "note": "(stereo not given)", "activity change, positive = activation": "inactive: -16.1%"},
      {"smiles": "Fc1ccc(NC(=S)NCc2cccs2)cc1", "Potency": "inconclusive: 6.31 µM [activator, single point]"},
      {"smiles": "CN(Cc1cccs1)C(=O)CCCc1c[nH]c2ccccc12", "Potency": "inconclusive: 17.8 µM [activator, single point]"},
      {"smiles": "O=C(CCNS(=O)(=O)c1cccc2nsnc12)NCc1cccs1", "Potency": "inconclusive: 5.01 µM [activator, partial curve]"},
      {"smiles": "CCCNC(=O)c1noc2c1CCc1cc(OC)ccc1-2", "Potency": "active: 11.2 µM"},
      {"smiles": "Fc1ccc(NCc2cn3ccccc3n2)cc1", "Potency": "inconclusive: 8.91 µM [activator, partial curve, poor fit]"},
      {"smiles": "Cc1ccc(-c2cc(C(=O)NCc3ccccn3)c3ccccc3n2)cc1", "Potency": "inconclusive: 35.5 µM [activator, single point]"},
      {"smiles": "CCN1C(=O)c2cccc3c(S(=O)(=O)NCc4cccnc4)ccc1c23", "Potency": "inconclusive: 14.1 µM [activator, single point]"},
      {"smiles": "Fc1ccccc1Cn1nnc(-c2ccc3c(c2)OCO3)n1", "Potency": "active: 12.6 µM"},
      {"smiles": "Cc1noc(C)c1S(=O)(=O)Nc1ccc(C(=O)NCCc2ccccc2)cc1", "Potency": "inconclusive: 35.5 µM [activator, single point]"},
      {"smiles": "O=c1c(-c2ccc(F)cc2)nc2cnc(N3CCOCC3)nc2n1C[C@H]1CCCO1", "activity change, positive = activation": "inactive: 2.56%"},
      {"smiles": "Cc1nc(C#N)c(N/N=C/c2cccc(Cl)c2)o1", "Potency": "active: 11.2 µM"},
      {"smiles": "CCCc1nc2c(sc3nc4c(cc32)COC(C)(C)C4)c(=O)n1Cc1ccco1", "activity change, positive = activation": "inactive: -17.1%"},
      {"smiles": "CN(C(=O)CSc1nnc(N)s1)c1c(N)n(Cc2ccccc2)c(=O)[nH]c1=O", "Potency": "inconclusive: 7.08 µM [activator, partial curve, poor fit]"},
      {"smiles": "Cc1ccc(-n2c(=O)[nH]cc(C(=O)N3CCc4ccccc43)c2=O)cc1", "Potency": "inconclusive: 0.0562 µM [activator, full curve, poor fit]"},
      {"smiles": "O=C(CSc1ncn(-c2ccccc2)n1)Nc1nncs1", "activity change, positive = activation": "inactive: 1.19%"},
      {"smiles": "O=c1[nH]c(=O)c2nc(-c3ccc(Cl)cc3)cnc2[nH]1", "activity change, positive = activation": "inactive: -4.55%"},
      {"smiles": "CCOc1ccc(Oc2nc(N(CC)CC)nc(N3CCOCC3)n2)nn1", "Potency": "inconclusive: 7.94 µM [activator, partial curve]"},
      {"smiles": "S=c1[nH]nc(-c2cccnc2)n1Cc1ccccc1", "Potency": "inconclusive: 0.0398 µM [activator, full curve]"},
      {"smiles": "O=C(NC1CCCC1)c1cc2c(ccc3ccccc32)o1", "Potency": "active: 12.6 µM"},
      {"smiles": "N#C/C(=C/c1ccc(N2CCCCC2)cc1)c1cccc(F)c1", "Potency": "inconclusive: 35.5 µM [activator, single point]"},
      {"smiles": "CCc1nnc2n1N=C(c1ccc(OC)cc1)CS2", "Potency": "inconclusive: 8.91 µM [activator, partial curve]"},
      {"smiles": "Cc1cc(C)n2nc(CNC(=O)c3cccc(Cl)c3)nc2n1", "activity change, positive = activation": "inactive: -9.86%"},
      {"smiles": "COc1ccc(OCC(=O)Nc2cccc(-c3nc4ccccc4[nH]3)c2)cc1", "Potency": "inconclusive: 14.1 µM [activator, single point]"},
      {"smiles": "COc1ccc(Cn2c(=O)[nH]c3cc(C(=O)Nc4ccc(N5CCN(C)CC5)cc4)ccc32)cc1", "Potency": "inconclusive: 8.91 µM [activator, partial curve, poor fit]"},
      {"smiles": "Clc1cccc(-c2cc3nc4c(c(NCc5ccco5)n3n2)CCCC4)c1", "Potency": "inconclusive: 20 µM [activator, single point]"},
      {"smiles": "Cc1cc(C)nc(SCC(=O)N/N=C\\c2sccc2C)n1", "Potency": "inconclusive: 1.26 µM [activator, full curve, poor fit]"},
      {"smiles": "CCc1nc2ccccc2[nH]1", "activity change, positive = activation": "inactive: 0.119%"},
      {"smiles": "CC1CC/C(=N/Nc2ccccc2)C(=O)N1", "note": "(stereo not given)", "activity change, positive = activation": "inactive: 27.1%"},
      {"smiles": "O=C(O)CCC(=O)N1CCN(c2ccccn2)CC1", "activity change, positive = activation": "inactive: 1.81%"},
      {"smiles": "O=C(CNC(=O)c1ccco1)OCC(=O)c1ccc(Cl)cc1", "activity change, positive = activation": "inactive: -7%"},
      {"smiles": "Cc1ccccc1C(=O)Nc1ccc(NC(=O)c2cccs2)cc1", "Potency": "active: 3.55 µM"},
      {"smiles": "CCC(=O)Nc1ccc(C(=O)N/N=C/c2cccnc2)cc1", "Potency": "inconclusive: 8.91 µM [activator, partial curve, poor fit]"},
      {"smiles": "O=c1c(C(c2ccc(O)cc2)c2c(O)nc3n(c2=O)CCCS3)c(O)nc2n1CCCS2", "Potency": "inconclusive: 3.16 µM [activator, single point]"},
      {"smiles": "Oc1ccccc1-c1csc(-c2ccccc2)n1", "Potency": "inconclusive: 35.5 µM [activator, partial curve, poor fit]"},
      {"smiles": "COCCn1c(-c2ccccc2)nc2oc3cc(OC)ccc3c(=O)c2c1=O", "Potency": "inconclusive: 2.82 µM [activator, single point]"},
      {"smiles": "CN1C(=O)NC(NC(=O)c2cccs2)(C(F)(F)F)C1=O", "note": "(stereo not given)", "Potency": "inconclusive: 0.794 µM [activator, full curve, poor fit]"},
      {"smiles": "Cc1onc(-c2ccccc2Cl)c1C(=O)N1CCc2ccccc21", "Potency": "inconclusive: 17.8 µM [activator, single point]"},
      {"smiles": "CCOc1ccccc1N1CCN(C(=O)c2ccncc2)CC1", "Potency": "inconclusive: 0.708 µM [activator, full curve, poor fit]"},
      {"smiles": "COc1cc(C=O)ccc1OCCCOc1ccccc1[N+](=O)[O-]", "Potency": "inconclusive: 35.5 µM [activator, single point]"},
      {"smiles": "COCCCNc1oc(/C=C/c2cc(OC)c(OC)c(OC)c2)nc1C#N", "Potency": "inconclusive: 14.1 µM [activator, single point]"},
      {"smiles": "CC12c3ccccc3C(c3ccccc31)C1C(=O)N(Cc3cccnc3)C(=O)[C@H]12", "note": "(stereo not given in full)", "Potency": "inconclusive: 4.47 µM [activator, single point]"},
      {"smiles": "Cc1c(C(=O)N2CCc3ccccc32)oc2c1C(=O)CC(C)(C)C2", "Potency": "active: 12.6 µM"},
      {"smiles": "COc1ccc(C2CC(c3cccs3)=NN2C(=O)CSc2nc3ccccc3o2)cc1", "note": "(stereo not given)", "Potency": "inconclusive: 0.005 µM [activator, full curve, poor fit]"},
      {"smiles": "O=C(NCCc1cccc(Cl)c1)c1cccnc1", "Potency": "inconclusive: 14.1 µM [activator, partial curve, poor fit]"},
      {"smiles": "Cc1ccc(Cl)cc1-n1c(=O)cc(N2CC(C)OC(C)C2)[nH]c1=O", "note": "(stereo not given)", "Potency": "inconclusive: 12.6 µM [activator, partial curve, poor fit]"},
      {"smiles": "CCOc1ccc(NC(=O)CNc2ccc(C)cc2Cl)cc1", "activity change, positive = activation": "inactive: -7.7%"},
      {"smiles": "O=C(NCc1ccco1)c1ccc(COc2cc(Cl)ccc2Cl)cc1", "Potency": "inconclusive: 20 µM [activator, partial curve, poor fit]"},
      {"smiles": "NC(=O)SCC(=O)Nc1ccc2ncccc2c1", "activity change, positive = activation": "inactive: -7.14% [at 9.22 µM]"},
      {"smiles": "CC(C)c1ccc(O)c(NC(=S)NC(=O)CCc2ccccc2)c1", "Potency": "inconclusive: 10 µM [activator, partial curve, poor fit]"},
      {"smiles": "CCCCC(=O)N(Cc1ccc(-c2ccccc2-c2nn[nH]n2)cc1)C(C(=O)O)C(C)C", "note": "(stereo not given)", "activity change, positive = activation": "inactive: 7.98%"},
      {"smiles": "CC(=O)c1c(C)cc(C)c(CSc2nc(C)cc(=O)[nH]2)c1C", "Potency": "inconclusive: 35.5 µM [activator, single point]"},
      {"smiles": "CC(C)(C)c1ccc(-c2conc2N)cc1", "Potency": "active: 17.8 µM"},
      {"smiles": "S=C(NNc1ccc2ccccc2c1)NC1CCCCC1", "Potency": "inconclusive: 2.51 µM [activator, single point]"},
      {"smiles": "COc1cccc(C(=O)Nc2cnc(NC(=O)c3ccco3)cc2C)c1", "activity change, positive = activation": "inactive: 18.3%"},
      {"smiles": "CCCc1cc(=O)[nH]c(Nc2ccc3c(c2)OCCO3)n1", "activity change, positive = activation": "inactive: -3.14%"},
      {"smiles": "Cc1ccc(C)c(SCc2noc(C(=O)NC(C)C)c2C(=O)O)c1", "Potency": "inconclusive: 35.5 µM [activator, single point]"},
      {"smiles": "Clc1ccc(/C=C/c2nc3ccccc3[nH]2)cc1", "Potency": "active: 0.794 µM"},
      {"smiles": "Cc1cccc(-c2noc(CN(C(=O)C34CC5CC(CC(C5)C3)C4)C(C)C)n2)c1", "activity change, positive = activation": "inactive: -9.94%"},
      {"smiles": "C=CCOc1c(Br)cc(/C=N/Nc2ccc(C(=O)O)cc2)cc1OCC", "Potency": "active: 8.91 µM"},
      {"smiles": "CC(=O)c1ccc(NC(=S)N2CCCCCC2)cc1", "Potency": "inconclusive: 17.8 µM [activator, partial curve]"},
      {"smiles": "COCC(=O)Nc1cc(C(=O)NCCc2ccccc2)ccc1Cl", "Potency": "active: 0.631 µM"},
      {"smiles": "CCC(=O)Nc1cc(-c2nn(C)c(=O)c3ccccc23)ccc1OC", "Potency": "inconclusive: 35.5 µM [activator, single point]"},
      {"smiles": "CCOc1ccc(/C=N/NC(=O)CNC(=O)c2ccc(S(=O)(=O)N3CCOCC3)cc2)cc1", "activity change, positive = activation": "inactive: -12%"},
      {"smiles": "Cc1ccccc1-c1noc(-c2ccc(O)cc2)n1", "Potency": "inconclusive: 35.5 µM [activator, single point]"},
      {"smiles": "Cc1cccc(NC(=O)c2nnn(CC(=O)Nc3ccc(C(C)C)cc3)c2N)c1C", "activity change, positive = activation": "inactive: -1.97%"},
      {"smiles": "Cc1ccc(N2C(=O)c3ccccc3C2C(=O)c2ccc(O)cc2O)cc1", "note": "(stereo not given)", "Potency": "inconclusive: 15.8 µM [activator, single point]"},
      {"smiles": "CC(C)c1ccc(NC(=O)c2n[nH]c(=O)c3ccccc23)cc1", "Potency": "active: 5.62 µM"},
      {"smiles": "O=C(O)[C@H]1CCCC[C@@H]1c1c2ccc(=O)c(O)c-2oc2c(O)c(O)ccc12", "activity change, positive = activation": "inactive: -2.17% [at 9.22 µM]"},
      {"smiles": "Brc1ccccc1-c1nnc(COc2cccc3cccnc23)o1", "Potency": "inconclusive: 1.78 µM [activator, full curve]"},
      {"smiles": "CC(=O)Nc1ccc2nc(NC(=O)COc3ccccc3C)sc2c1", "Potency": "inconclusive: 4.47 µM [activator, single point]"}
    ]}
  ]
}
